Assay results published in ChEMBL document CHEMBL4888484, “Replenishing the malaria drug discovery pipeline: Screening and hit evaluation of the MMV Hit Generation Library 1 (HGL1) against asexual blood stage Plasmodium falciparum ,using a nano luciferase reporter read-out” (2022).
The campaign covered roughly 150,000 compounds. About 540 (0.36%) showed an effect of 50% or more. The list shows a part of the results.

These compounds were tested on Plasmodium falciparum (assay: Primary screen in NF54 nanoGlo assay, in single point, at 2uM, 72h; a lower Z score goes with more inhibition). Settings: timepoint 72 hour.
Type: functional, Erythrocyte

Row | SMILES | % Inhibition | Z score
1 | Cc1c(C(=O)O)cnn1-c1nccc(-c2ccc3c(c2)OCO3)n1 | -7% | 1.24
2 | Cc1cc(NC(=O)NCc2c(C)cc(CO)cc2C)cc(C)n1 | 5% | -0.95
3 | COc1ccccc1-c1cc2c(=O)n(CC#N)ccn2n1 | -5% | 0.92
4 | COc1cccc(S(=O)(=O)N(C)[C@@H](C)C(C)(C)O)c1OC | -6% | 1.01
5 | Cc1cc(=O)[nH]c(CNc2ncnc3c2CCC3)n1 | -18% | 3.38
6 | CCn1nnc2c(N3CCCC3)ncnc21 | -6% | 0.98
7 | O=C1[C@H](Cc2ccccc2)NC2(CCN(S(=O)(=O)c3ccccc3)CC2)N1Cc1ccco1 | -16% | 1.91
8 | C[C@H]1CCc2nc3ccccc3c(C(=O)N3CCN(c4nccs4)CC3)c2C1 | -8% | 0.9
9 | Cc1c(Cl)cccc1S(=O)(=O)N1CCC(Oc2ccccn2)CC1 | 0% | -0.01
10 | c1cn(Cc2ccc3c(c2)OCO3)c(-c2ccc(-c3cc[nH]n3)o2)n1 | -8% | 1.56
11 | O=C1O[C@@H](CNS(=O)(=O)c2cccnc2)CN1c1ccccc1 | -12% | 1.38
12 | Cc1ccc(Cc2noc(-c3cccc(OC(C)C)n3)n2)cn1 | -13% | 1.68
13 | O=C(O)c1csc(S(=O)(=O)N(CC2CCC2)c2ccccc2)c1 | 25% | -2.84
14 | CC1CCCC(c2ncnc3c2cnn3-c2ccccc2)C1 (configuration not stated) | -4% | 0.55
15 | O=C(N[C@H]1CCOC[C@@H]1Oc1ccccn1)c1cn[nH]c1 | -5% | 0.83
16 | Cc1ncnc(OCC2CCN(CCN3CCCC3=O)CC2)c1C | -2% | 0.24
17 | O=C(C1CCCC1)N1CCN(Cc2ccc(-n3ccnc3)cc2)CC1 | -19% | 3.73
18 | CCCCNC(=O)N1CCCS(=O)(=O)CC1 | -10% | 1.53
19 | Cn1nc(CCN[C@H](c2ccccc2)c2ncc[nH]2)c2ccccc21 | 1% | -0.1
20 | COCCNCCOc1ccccc1Cl | 5% | -0.61
21 | Cc1nc2ccccc2n1CC1CCCN1C(=O)C1CCc2cccnc21 (configuration not stated) | 32% | -4.57
22 | CCc1ncc(S(=O)(=O)N2CCCC2(C)C)s1 | -7% | 1.15

Row | SMILES | % Inhibition | Z score
23 | CC(C)(C)NCCCCOc1ccccc1Cl | -6% | 1.16
24 | N#Cc1cnn(-c2nncc3ccccc23)c1N | 28% | -3.2
25 | COc1cc(NC(=O)c2scnc2C)ccc1N1CCOC1=O | -12% | 2
26 | C[C@@H](CC(=O)NCCc1ccco1)n1cccn1 | 0% | 0.06
27 | CC[C@H]1CC[C@@H](C)N(C(=O)c2ccc(C(N)=O)cn2)C1 | -12% | 1.47
28 | CCn1ccc(C(=O)N[C@H]2CN(Cc3ccncc3)C[C@@H]2C(=O)NC)n1 | 1% | -0.15
29 | CN1CC2(CCN(C(=O)c3ccc[nH]3)CC2)C[C@@H](c2ccccc2)C1=O | -9% | 1.35
30 | COC(=O)c1cc(NC(=O)CN(C)S(=O)(=O)c2ccc3c(c2)OCCCO3)c(F)cc1F | -4% | 0.51
31 | CNc1snc(C)c1C(=O)N1CCC(Cc2ccccc2)CC1 | -7% | 0.66
32 | Cc1ncc(C(=O)N2C[C@H]3CN(C(=O)c4ccccc4)C[C@@]3(c3nc(C)no3)C2)cn1 | -16% | 2.12
33 | N[C@H]1CCN(c2nc(-c3ccccc3)cc(-c3ccco3)n2)C1 | 0% | -0.05
34 | C[C@]1(C(=O)O)CCN(C(=O)c2ccc(Oc3ccccc3)o2)C1 | -8% | 1.11
35 | COc1ccc(S(=O)(=O)N2CC(=O)N(CC3CC3)C3(CCCCC3)C2)cc1 | 1% | -0.09
36 | Cc1[nH]c2c(F)cc(F)cc2c1CCN[C@H]1CCOC2(CCOCC2)C1 | 1% | -0.09
37 | O=C(Nc1ccc2c(c1)cc(C(=O)Nc1ccccc1)n2Cc1ccccc1F)c1cccc(F)c1 | 7% | -0.8
38 | O=C(c1ccc(NS(=O)(=O)N2CCOCC2)cc1)C1CCC1 | 8% | -1.01
39 | O=C(c1nn(-c2ccccc2F)cc1O)N1CCC(OC[C@H]2CCCO2)CC1 | -8% | 1.11
40 | CC(C)n1nc(-c2ccco2)nc1[C@@H]1[C@H]2[C@@H]3CC[C@@H](C3)[C@@H]12 | -1% | 0.23
41 | CC(=O)c1cccc(-n2cc(C3(S(N)(=O)=O)CCC3)nn2)c1 | 0% | -0.03
42 | COCCC(C)NC1CC2(CCOCC2)Oc2ccccc21 (configuration not stated) | -1% | 0.17
43 | COc1ccc(OCC2CCN(Cc3c[nH]c(C)n3)CC2)cc1 | -13% | 2.28
44 | COc1ccc(-c2ccc(N3CCN(C(=O)CN(CC4CC4)C(=O)NC(C)(C)C)CC3)nn2)c(OC)c1 | 3% | -0.38

Row | SMILES | % Inhibition | Z score
45 | CCn1c(NS(C)(=O)=O)nc2cc(Cl)ccc21 | 9% | -1.06
46 | CCN1CCN(CCCN2CC3(CCN(Cc4cccc(C)c4)CC3)OC2=O)CC1 | -17% | 2.95
47 | CC1(C)CN(C(=O)CCc2c[nH]nn2)[C@H]2CCC[C@H]21 | 8% | -1.2
48 | Cc1ccc(NS(=O)(=O)c2ccc(NC(=O)C3CCC3)cc2)cc1C | -13% | 1.14
49 | O=C(CC1C=CCC1)Nc1cc(C2CC2)nn1C1CCS(=O)(=O)C1 (configuration not stated) | -5% | 0.7
50 | CCc1nccn1CC(=O)N1CCN(c2ccc(C(=O)OC)cc2)CC1 | 11% | -1.58
51 | COc1ccc(CNC(=O)c2ccc(-c3nc4cccnc4n(C)c3=O)cc2)cc1OC | -5% | 0.8
52 | Cc1nc2cc(C[C@H]3CCCS(=O)(=O)C3)ccc2o1 | -9% | 1.14
53 | O=C1NC2(CCCC2)C(=O)N1C[C@H](O)COc1ccc(-c2ccccc2)cc1 | -4% | 0.61
54 | CC(C)(C)OC(=O)C[C@@H]1CCN(C(=O)Nc2ccccc2)C[C@@H]1CCN1CCC(C(N)=O)CC1 | -10% | 1.29
55 | CCCc1nnc(NCc2cccn2C)o1 | -2% | 0.28
56 | CCCn1cc(NC(=O)N(C)[C@H]2CCN(C)C2)nn1 | -4% | 0.54
57 | O=C(NC1CCCC1CCO)N[C@H]1CCOc2c(F)cccc21 (some centres not stated) | -29% | 3.41
58 | NC(=O)CN(CC(=O)NCCc1ccc(F)cc1)C1CCCC1 | 0% | -0.01
59 | O=C(NC1CC2CCC1O2)N1CCC(Oc2ccc(F)cc2F)CC1 (configuration not stated) | -8% | 1.36
60 | Cn1ncnc1COc1ccccc1C(=O)NCc1ccccc1 | -5% | 0.95
61 | Cc1ccnn1CCCNC(=O)CCn1nc(C(F)(F)F)c(Cl)c1C | 6% | -0.95
62 | CCCN1C(=O)COc2ccc(-c3csc(NC(=O)COc4ccc(Cl)cc4Cl)n3)cc21 | 1% | -0.12
63 | CC(C)(CNc1ccc(Br)cc1C#N)C(N)=O | -8% | 0.91
64 | Cn1ncnc1NC(=O)N1CCC[C@H]1C1CCOCC1 | 1% | -0.2
65 | O=C1C[C@H](c2ccc3c(c2)OCO3)c2scc(-c3cccc(F)c3)c2N1 | -7% | 0.95
66 | COc1cc([C@H]2CC(=O)Nc3c(C(=O)O)cn(-c4ccccc4F)c32)ccc1O | -38% | 4.44

Row | SMILES | % Inhibition | Z score
67 | CN1C(=O)CC[C@H](NC(=O)NCC2=CCCCC2)C1=O | 7% | -0.94
68 | CCn1nccc1C(=O)N1CC[C@H](Oc2cccc(F)c2)C1 | -4% | 0.49
69 | COCc1cc(Cl)ccc1NC(=O)N1C2CCC1CC1(C2)CC1(F)F (configuration not stated) | 2% | -0.36
70 | Cc1ccc(CNC(=O)N2CCC[C@H]2c2ccc(C)s2)nc1 | -8% | 0.92
71 | CN1CC[C@H](NS(=O)(=O)c2cc(Cl)ccc2OCCC2CC2)CC1=O | -2% | 0.28
72 | Cc1c[nH]c(CN2CCC[C@H](c3nnc4ccccn34)C2)c(C)c1=O | -3% | 0.66
73 | Cc1c(CNc2ncc(F)cn2)cnn1C | -12% | 1.44
74 | CCCN(CCC)S(=O)(=O)c1c(C)n[nH]c1C | -7% | 0.68
75 | COc1ccc(-c2cc(C(F)F)c3c(C4CC4)nn(CC(=O)O)c3n2)cc1 | -28% | 3.24
76 | CCN1CCC(Nc2ncnc3sc(C)c(C)c23)CC1 | 16% | -1.84
77 | CCc1nnc2n1CCN(C(=O)c1nc(OC(C)C)ccc1Cl)C2 | 0% | 0.09
78 | O=C(c1ccc(F)c(F)c1F)N1CCC(n2cnc3ncccc3c2=O)CC1 | -8% | 1.07
79 | COCCOc1ncccc1NC(=O)N1CCC([C@@H]2CCCCO2)CC1 | -9% | 1.64
80 | Cc1cnc(C2CCOCC2)n1CC1CN(C(=O)c2cnccn2)C1 | -7% | 0.97
81 | c1coc(CC[C@@H]2NCCn3cccc32)c1 | 34% | -3.9
82 | O=C(O)CCc1cc2n(n1)CCN(Cc1ccc([C@@H]3CCCO3)s1)C2 | -20% | 2.62
83 | Cn1cc(C(=O)N2CCCC[C@@H]2CN2CCCC2)c(=O)c2ccccc21 | -10% | 1.4
84 | O=C(Nc1ccc2[nH]ncc2c1)c1c[nH]nc1C1CC1 | -11% | 2.03
85 | CN(Cc1ccco1)C(=O)c1cccc(C(=O)N(C)Cc2ccco2)n1 | -15% | 1.99
86 | CS(=O)(=O)NCCN(Cc1nc(-c2c(F)cccc2F)cs1)C1CC1 | -6% | 0.75
